ChEMBL document CHEMBL4888484, “Replenishing the malaria drug discovery pipeline: Screening and hit evaluation of the MMV Hit Generation Library 1 (HGL1) against asexual blood stage Plasmodium falciparum ,using a nano luciferase reporter read-out” (2022)
The whole screen tested about 150,000 compounds, of which about 540 (0.36%) showed an effect of 50% or more. Some of the results follow.

System: Plasmodium falciparum
Assay: Primary screen in NF54 nanoGlo assay, in single point, at 2uM, 72h; a lower Z score goes with more inhibition
Assay type: functional, Erythrocyte
Settings: timepoint 72 hour

Row | Structure (SMILES) | % Inhibition | Z score
1 | CCc1ccc(-c2ccc(N(CC)c3cccc(C)c3)nn2)cc1S(N)(=O)=O | -21% | 2.5
2 | COc1cc(OC)cc(C(=O)Nn2cc(C(=O)NC[C@H]3CCCO3)c3ccccc3c2=O)c1 | 11% | -1.95
3 | COC1(OC)CCN(Cc2cc3c(cn2)OCCO3)C[C@@H]1O | 0% | 0.01
4 | Cc1ccc2c(Nc3cccc(F)c3)c(C(=O)N3CCCC3)cnc2n1 | -11% | 1.57
5 | C[C@@H]1CN(C(=O)c2ccc(C(F)F)o2)c2ncnn2C1 | -11% | 2.02
6 | Cc1c(CNC2CCC(C)CC2)c(C(=O)O)c(C)n1-c1ccc(Cl)cc1 (centres undefined) | -8% | 1.05
7 | O=S(=O)(N[C@H]1CO[C@H]2[C@@H]1OC[C@@H]2n1nnnc1Oc1ccc2c(c1)OCO2)c1ccc2ccccc2c1 | -7% | 1.2
8 | C[C@H](NC(=O)c1ccc(Br)c(O)c1)C1(N2CCOCC2)CCCC1 | 3% | -0.37
9 | COc1ccc(-c2cn[nH]c2C(C)C)c(OC)n1 | 3% | -0.39
10 | Cc1ccc(S(=O)(=O)Nc2nc3ccccc3nc2Nc2ccc3c(c2)OCO3)c(C)c1 | 31% | -3.53
11 | O=C(c1cccnc1)N1CCN(CCc2ccccc2)[C@@H]2CS(=O)(=O)C[C@@H]21 | 1% | -0.26
12 | CC(=O)Nc1c(-c2ccccn2)nsc1C(=O)NCc1cc(F)cc(F)c1 | -13% | 1.23
13 | NC[C@@H]1CN(c2nccc(C(F)F)n2)C[C@H]1c1ccccc1 | -11% | 1.4
14 | COc1cc(NC(=O)c2ccc(-n3nc(OCc4ccc(Cl)cc4)ccc3=O)cc2)cc(OC)c1 | -3% | 0.61
15 | O=C(c1cn2cc(Cl)ccc2n1)N1CCN(Cc2ccc3c(c2)OCO3)CC1 | -8% | 0.83
16 | Cc1c(Cl)cccc1NC(=O)[C@H](C)n1cnc2nc3c(cc2c1=O)CCCC3 | -7% | 0.85
17 | CO[C@@H]1CCC[C@@H]2CN(C(=O)NCCc3ccccc3)C[C@@H]21 | -3% | 0.27
18 | FC(F)c1cncc(-c2ncccc2N2CCCCC2)c1 | -7% | 0.71
19 | O=C(NC(=O)c1ccc(Cl)cc1)NC1(C(F)(F)F)OCCO1 | 3% | -0.56
20 | CCOc1ccccc1NC(=O)c1nc2c(=O)n(Cc3cccc(F)c3)c3cc(C)ccc3n2n1 | -2% | 0.27
21 | CCc1cnccc1C(=O)NCC(=O)C(C)C | 3% | -0.48
22 | O=C1CCN(C(=O)CCCc2ccc(Cl)c(Cl)c2)CCN1 | -6% | 0.73
